Reference: PubChem BioAssay (NCI)
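Dose response: 5 concentrations. Exposure: 48 h. Format: 96-well plates. Endpoint: linear interpolation; highest concentration if not reached. Abbreviation: GI50, concentration required for 50% inhibition of growth.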 For part of its entries the source gives two or more results. Only these are listed. There may be further records. The tests behind the records often covered other concentration ranges, which the source does not state; a value can be the end of its range.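 TGI is the concentration that stops growth completely.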

How the values were obtained:
Assay in all cases: NCI tumour cell line growth inhibition, 48 h
MOLT-4 leukemia = test system: MOLT-4 leukemia
P388 leukemia = test system: P388 leukemia
P388/ADR leukemia = test system: P388/ADR leukemia
SNB-75 CNS = test system: SNB-75 CNS
786-0 renal = test system: 786-0 renal
A498 renal = test system: A498 renal
A549 NSCLC = test system: A549 NSCLC
ACHN renal = test system: ACHN renal
CAKI-1 renal = test system: CAKI-1 renal
COLO 205 colon = test system: COLO 205 colon
DMS 114 small cell lung = test system: DMS 114 small cell lung
EKVX NSCLC = test system: EKVX NSCLC
HCT-15 colon = test system: HCT-15 colon
HOP-92 NSCLC = test system: HOP-92 NSCLC
IGROV1 ovarian = test system: IGROV1 ovarian
K-562 leukemia = test system: K-562 leukemia
LOX IMVI melanoma = test system: LOX IMVI melanoma
M14 melanoma = test system: M14 melanoma
M19-MEL melanoma = test system: M19-MEL melanoma
MALME-3M melanoma = test system: MALME-3M melanoma
MCF7 breast = test system: MCF7 breast
OVCAR-3 ovarian = test system: OVCAR-3 ovarian
OVCAR-4 ovarian = test system: OVCAR-4 ovarian
RPMI-8226 leukemia = test system: RPMI-8226 leukemia
RXF 393 renal = test system: RXF 393 renal
SF-268 CNS = test system: SF-268 CNS
SF-539 CNS = test system: SF-539 CNS
SK-MEL-2 melanoma = test system: SK-MEL-2 melanoma
SK-MEL-28 melanoma = test system: SK-MEL-28 melanoma
SK-MEL-5 melanoma = test system: SK-MEL-5 melanoma
SK-OV-3 ovarian = test system: SK-OV-3 ovarian
SNB-78 CNS = test system: SNB-78 CNS
SW-620 colon = test system: SW-620 colon
U251 CNS = test system: U251 CNS
UACC-62 melanoma = test system: UACC-62 melanoma
XF 498 CNS = test system: XF 498 CNS
CCRF-CEM leukemia = test system: CCRF-CEM leukemia

C[C@@](O)(/C=C/[C@H]1CC=CC(=O)O1)[C@@H](C[C@@H](O)\C=C/C=C\C=C\CO)OP(=O)(O)O
TGI (MOLT-4 leukemia): > 3 mM [1 test] and 19.1 µM [mean of 9 tests] | TGI (P388 leukemia): > 3 mM [1 test] and 8.35 µM [mean of 7 tests] | TGI (P388/ADR leukemia): 300 µM [1 test] and 7.38 µM [mean of 4 tests] | TGI (SNB-75 CNS): > 3 mM [1 test] and 188 µM [mean of 9 tests]

O=C1N[C@H]2[C@H](O)[C@H](O)[C@@H](O)[C@H](O)[C@@H]2c2cc3c(c(O)c21)OCO3
TGI (786-0 renal): 5.54 µM and 181 nM | TGI (A498 renal): 774 nM, 5.55 µM, 327 nM | TGI (A549 NSCLC): 22.1 µM and 909 nM | GI50 (ACHN renal): 306 nM [1 test] and 30.3 nM [mean of 3 tests] | TGI (ACHN renal): 2.29 µM and 88.2 nM | TGI (CAKI-1 renal): 3.6 µM and 147 nM | TGI (COLO 205 colon): 30.2 µM and 61.7 nM | TGI (DMS 114 small cell lung): 755 nM, 3.68 µM, 148 nM | GI50 (EKVX NSCLC): 308 nM [1 test] and 5.51 µM [mean of 3 tests] and 59.3 nM [mean of 8 tests] | TGI (EKVX NSCLC): 881 nM [1 test] and > 15.3 µM [mean of 3 tests] and 307 nM [mean of 8 tests] | TGI (HCT-15 colon): 11.3 µM and 580 nM | TGI (HOP-92 NSCLC): 1.96 µM and 92.7 nM | TGI (IGROV1 ovarian): 6.4 µM and 616 nM | TGI (K-562 leukemia): 8.49 µM and 182 nM | TGI (LOX IMVI melanoma): 539 nM, 926 nM, 89.2 nM | TGI (M14 melanoma): 886 nM, 1.09 µM, 98.1 nM | TGI (M19-MEL melanoma): 4.26 µM and 382 nM | TGI (MALME-3M melanoma): 1.38 µM and 110 nM | TGI (MCF7 breast): > 100 µM and 317 nM | TGI (MOLT-4 leukemia): 2.39 µM and 85.1 nM | TGI (OVCAR-3 ovarian): 926 nM, 1.89 µM, 108 nM | TGI (OVCAR-4 ovarian): 704 nM, 2.96 µM, 98.2 nM | TGI (RPMI-8226 leukemia): > 28.2 µM and 429 nM | TGI (RXF 393 renal): 561 nM, 3.49 µM, 246 nM | TGI (SF-268 CNS): 7.65 µM and 329 nM | GI50 (SF-539 CNS): 170 nM [1 test] and 5.98 µM [mean of 3 tests] | TGI (SF-539 CNS): 465 nM, 14.1 µM, 94.5 nM | TGI (SK-MEL-2 melanoma): 1.64 µM and 119 nM | TGI (SK-MEL-28 melanoma): 8.69 µM and 269 nM | TGI (SK-MEL-5 melanoma): 757 nM and 53.7 nM | TGI (SK-OV-3 ovarian): 5.55 µM and 521 nM | TGI (SNB-75 CNS): 881 nM, 8.35 µM, 135 nM | TGI (SNB-78 CNS): > 20.2 µM and 447 nM | TGI (SW-620 colon): 9.25 µM and 538 nM | TGI (U251 CNS): > 13.4 µM and 588 nM | TGI (UACC-62 melanoma): 768 nM, 2.49 µM, 206 nM | TGI (XF 498 CNS): 780 nM, 5.89 µM, 66.4 nM

CCN(CC)CCCNc1[nH]ncc2c(C)c3nc4ccccc4c3cc12
TGI (CCRF-CEM leukemia): 1.54 µM and 72.5 nM
